This is one part of the list.

Binding signal data for 54 sequences are collected here from PMC7819943, “Rice protein-binding microarrays: a tool to detect cis-acting elements near promoter regions in rice”.

The assay concerns the target T1, OsWOX13 (Oryza sativa, UniProt Q5QMM3 1-267).
T1 sequence: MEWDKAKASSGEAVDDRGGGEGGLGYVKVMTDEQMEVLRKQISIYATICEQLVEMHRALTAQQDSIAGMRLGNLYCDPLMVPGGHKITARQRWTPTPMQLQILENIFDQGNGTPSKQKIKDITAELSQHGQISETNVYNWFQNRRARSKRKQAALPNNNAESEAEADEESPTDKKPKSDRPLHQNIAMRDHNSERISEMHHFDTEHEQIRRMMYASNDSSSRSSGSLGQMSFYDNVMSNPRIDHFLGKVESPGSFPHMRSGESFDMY
Put plainly: protein-binding microarray (RPBM); PBS, 2% BSA, 51.3 ng/ul salmon testes DNA, 50 uM zinc acetate, 200 nM TF, 25 C, 1 h; high values mean tight binding. The settings on record: protein: recombinant; tags: N-terminal polyhistidine and DsRed monomer fusion (pET32a); label: CyDye5-dUTP incorporated in the synthesized complementary strand; 3' TTTTT single-stranded linker to array surface; dsDNA, one strand shown. The procedure, abridged:
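Using Ni–NTA, transcription factors fused N-terminally to polyhistidine and DsRed were purified after expression in E. coli BL21-CodonPlus. These were incubated at 200 nM with a blocked, double-stranded custom Agilent array for 1 h at 25 °C in a buffer containing 50 µM zinc acetate, and the array was washed. The binding signal is per-feature fluorescence intensity (arbitrary units) on an Axon 4000B scanner.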
In the case of “GTAGAGTCCAATCCAATCCAATCCAATCTCCGCTGACATCCGGAGTCACCTAGTGCAG”, the binding signal was 7270 fluorescence intensity (a.u.).

As to “GCCACCACAAGGACAAGGTGATTAGAATAATTAATCTCAGCGGAGTCACCTAGTGCAG”, the binding signal was 3380 fluorescence intensity (a.u.).

Regarding “AAAATGATAAATAATTAAGCACGAATCTAGAAGAGGCATTCGGAGTCACCTAGTGCAG”, the binding signal was 13200 fluorescence intensity (a.u.).

“TTAATTACTCTTAACTATACTCTGTAATTAGCGGGTACTACGGAGTCACCTAGTGCAG”: the binding signal is 21300 fluorescence intensity (a.u.).

Consider “TTCCTGATTTCCCCTTGCCGTCGCCAGCGTAGGCCCGTCCCGGAGTCACCTAGTGCAG”, for which the binding signal was 3840 fluorescence intensity (a.u.).

As to “TCTAGAGAATTAGCCCTGATTATAATGTGAGACTTTGCATCGGAGTCACCTAGTGCAG”, the binding signal was 4870 fluorescence intensity (a.u.).

For the sequence “CTTTAATTGGTGCTTGTTAAACCTCTTAGTGCTTGTTAAACGGAGTCACCTAGTGCAG”, the binding signal is 29200 fluorescence intensity (a.u.).

Consider “AGTTGATTATACTGTACATCAATATAATTCCCACATAACACGGAGTCACCTAGTGCAG”, for which the binding signal was 16800 fluorescence intensity (a.u.).

For “CTGCTATAGATTGCTCTGTCCATTTACATTTGGTTTCTTGCGGAGTCACCTAGTGCAG”, the binding signal is 5600 fluorescence intensity (a.u.).

Turning to “ACCATTAATTATTATGCTCTTATAAGAAAATAATAATGCCCGGAGTCACCTAGTGCAG”, the binding signal was 18300 fluorescence intensity (a.u.).

Regarding “GATGATGAATGACACAAATGGAGCCATGAAGGATACATCACGGAGTCACCTAGTGCAG”, the binding signal was 10700 fluorescence intensity (a.u.).

As for “GTAAACTGCGAGACGAATTTATTAAGCCTAATTAATCCGTCGGAGTCACCTAGTGCAG”, the binding signal is 13500 fluorescence intensity (a.u.).

In the case of “AAAATATATAATCAATGTTACATTCGATAAAACTAATTTGCGGAGTCACCTAGTGCAG”, the binding signal is 5270 fluorescence intensity (a.u.).

As for “AGAGAATCCAATTAGTAAACAGAAGAGATGAGCACTAACTCGGAGTCACCTAGTGCAG”, the binding signal was 4440 fluorescence intensity (a.u.).

Consider “GGTTTCTGATCAATTTTCGTCGAAAATGTAAACCCTGTTTCGGAGTCACCTAGTGCAG”, for which the binding signal was 3360 fluorescence intensity (a.u.).

For “AGCAACTAACTGACGATTTACGCACATTTATACACTGCTACGGAGTCACCTAGTGCAG”, the binding signal was 8220 fluorescence intensity (a.u.).

For the sequence “ACTTAGATGATATCATCCTGTCACTGTCACTAGTCCCACTCGGAGTCACCTAGTGCAG”, the binding signal was 4300 fluorescence intensity (a.u.).

On to “CCTAATTAGTCCATGATTAGTCATAAGTACTACAATAACCCGGAGTCACCTAGTGCAG”, for which the binding signal is 33900 fluorescence intensity (a.u.).

With “AAATGAAATTAGGTCAAGATGTCAAATAATGGAAGCCCATCGGAGTCACCTAGTGCAG”, the binding signal is 3420 fluorescence intensity (a.u.).

Take “TGAATAATTAGATCTATTACAAGATTTGTTCTGGTGAGAACGGAGTCACCTAGTGCAG”: the binding signal is 26000 fluorescence intensity (a.u.).

Consider “GCATGATCATTATTTTAACACTTCAGCTCCTCTATAACCCCGGAGTCACCTAGTGCAG”, for which the binding signal is 5290 fluorescence intensity (a.u.).

As for “CACTCCGTTTAATTGGAGGGAGTAGATCAGTAGATTGGTCCGGAGTCACCTAGTGCAG”, the binding signal is 7660 fluorescence intensity (a.u.).

As to “CTTGACTACTTTTATACATGCATGGTTGCTAATTGCATGGCGGAGTCACCTAGTGCAG”, the binding signal was 5850 fluorescence intensity (a.u.).

Turning to “GACGCTGATTTCTTATTGTTGTTATAGGAATTTGAATTTTCGGAGTCACCTAGTGCAG”, the binding signal was 8700 fluorescence intensity (a.u.).

As for “ATAACAATTATAATATCAAAATAGCATTTACCTGTTGCAACGGAGTCACCTAGTGCAG”, the binding signal was 3270 fluorescence intensity (a.u.).

As for “GATAATCATGTTCGATTTTAAAATCTCAATGACAATAAAGCGGAGTCACCTAGTGCAG”, the binding signal is 3480 fluorescence intensity (a.u.).

“CATTTTAAACATTAATTTATTTATATTATTTATTAACAACCGGAGTCACCTAGTGCAG”: the binding signal was 8620 fluorescence intensity (a.u.).

For the sequence “GTTAATTTTGTCGAGTTAATTGGATCTTTGCTTTGATGGGCGGAGTCACCTAGTGCAG”, the binding signal is 57600 fluorescence intensity (a.u.).

For the sequence “AACTAATTTAAATCGTGAGACGAATGTAACCCACATATGCCGGAGTCACCTAGTGCAG”, the binding signal was 30500 fluorescence intensity (a.u.).

For the sequence “AATCAATTGTGAAAATTATCTTCACACGTTGTTATGCATACGGAGTCACCTAGTGCAG”, the binding signal is 9260 fluorescence intensity (a.u.).

“CTTAAATTTTATCAACAGCTGTAATGGAAGTCTTTCCTCACGGAGTCACCTAGTGCAG”: the binding signal is 14900 fluorescence intensity (a.u.).

As to “ATTGTATTTGATTAAAGACATTGTATTCTGGTGTCAATTGCGGAGTCACCTAGTGCAG”, the binding signal was 3680 fluorescence intensity (a.u.).

As to “TCCATAAAAGGTCAGAAATTGATTTACCTCTCCGAGCATACGGAGTCACCTAGTGCAG”, the binding signal was 5260 fluorescence intensity (a.u.).

For “ATAGATCAATCACAAAAGACACGACATTTAACATGGAAAACGGAGTCACCTAGTGCAG”, the binding signal is 8560 fluorescence intensity (a.u.).

Consider “AAACAAATTACATAATAGGTAAACTGCGAGACGGATTTATCGGAGTCACCTAGTGCAG”, for which the binding signal was 23300 fluorescence intensity (a.u.).

For the sequence “ATCAGTCATAAATTGCTGTGCTAATGGATGAGGGACGCAGCGGAGTCACCTAGTGCAG”, the binding signal is 6940 fluorescence intensity (a.u.).

On to “GCCTGATTTGGGCCGGTAACACCGCCGTTTTCTAGGCCGGCGGAGTCACCTAGTGCAG”, for which the binding signal is 15600 fluorescence intensity (a.u.).

Regarding “CCATTAATTTAGGACATCTCGAGCAGACAGAAGCAGGAGGCGGAGTCACCTAGTGCAG”, the binding signal is 13300 fluorescence intensity (a.u.).

“TTCTAATTAAGTTTCCACTACATATGTGGCTTGCACTACACGGAGTCACCTAGTGCAG”: the binding signal is 16000 fluorescence intensity (a.u.).

Take “CTCGTTGAATTGATCACCTACCGTGCATTTGCATTTGGTTCGGAGTCACCTAGTGCAG”: the binding signal is 3340 fluorescence intensity (a.u.).

For the sequence “TCAATGTCCAAAATGTCAATTAAAATGGAATCGAAGGGAGCGGAGTCACCTAGTGCAG”, the binding signal is 5570 fluorescence intensity (a.u.).

In the case of “TCTAGAGATGTATATGTTTGATTGCTTGAGACAATCTCTTCGGAGTCACCTAGTGCAG”, the binding signal is 5900 fluorescence intensity (a.u.).

With “CACTAATGGAGTTGTTAGTGACAGGGCAGCTGCTCCTCTGCGGAGTCACCTAGTGCAG”, the binding signal was 7300 fluorescence intensity (a.u.).

For “ATTAATCCACAATTATCAAAAGTTTACTGTAGCATCACATCGGAGTCACCTAGTGCAG”, the binding signal is 5730 fluorescence intensity (a.u.).

As for “ATAAAATGATGATTCCACAGAGAAGTTACGTACAGTCCTTCGGAGTCACCTAGTGCAG”, the binding signal was 3810 fluorescence intensity (a.u.).

Regarding “CCAAATGGGACAAAAGATTGAAAAGAAAACTGACAGCCGCCGGAGTCACCTAGTGCAG”, the binding signal is 13900 fluorescence intensity (a.u.).

In the case of “AATAATCAATAATCGTAAATGCGATAAATAAATTTCATAACGGAGTCACCTAGTGCAG”, the binding signal was 11000 fluorescence intensity (a.u.).

With “ATTAAAGATTGAAATGTATAGACATCAATGGTGCGATTTTCGGAGTCACCTAGTGCAG”, the binding signal was 14100 fluorescence intensity (a.u.).

Turning to “ATCCATTCCGTTAATTAATCCAGAAATACTCCATTAGGCACGGAGTCACCTAGTGCAG”, the binding signal was 7480 fluorescence intensity (a.u.).

On to “TCTCATGTCTTCTATAAATTTAAACACAAATTGTAGTACTCGGAGTCACCTAGTGCAG”, for which the binding signal was 4290 fluorescence intensity (a.u.).

For “CACACTGATTTGGTTCAATTCTGAACACCAAACATATTATCGGAGTCACCTAGTGCAG”, the binding signal was 14000 fluorescence intensity (a.u.).

Turning to “CATTTTAATTGACGTTTTGGACAATGGCACGGTCTACAAACGGAGTCACCTAGTGCAG”, the binding signal is 36200 fluorescence intensity (a.u.).

In the case of “ACATTCGAGATTTGCAGTCTCTATCAGTCACAAATAGGGGCGGAGTCACCTAGTGCAG”, the binding signal was 3860 fluorescence intensity (a.u.).

As for “GGGCTGTAATTATTTTCAGACAGAGAGAGTATCCAAATTCCGGAGTCACCTAGTGCAG”, the binding signal is 6710 fluorescence intensity (a.u.).
